From PubChem BioAssay AID504832 (National Center for Advancing Translational Sciences (NCATS), 2011)
The campaign covered roughly 310,000 compounds. About 18,000 (5.8%) were called active. Inconclusive means that the source gave no clear call. Such entries were picked first, then a sample of the others. Calls follow the shape of the dose curve; as a rule, active = well fitted inhibition curve with a large enough effect; inconclusive = small, poorly fitted or top-dose-only effect, or another doubt; inactive = no such curve, though single readings can be large or run the other way. No potency is given beside an inconclusive call; the fits are too rough.

Test: Primary qHTS for delayed death inhibitors of the malarial parasite plastid, 48 hour incubation
Settings: P. falciparum luciferase growth in erythrocytes; series mostly up to 28.7 µM
Outline: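 Here the parasites carry a stable luciferase gene and grow inside erythrocytes in Albumax-based RPMI medium with compound for one erythrocytic cycle. Activity is scored as loss of luminescent signal.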
Potency is read from the fitted curve at half-maximal effect; tags tell the direction and shape of the fitted curve.

Structure (SMILES)	Potency
COc1ccc(C(=O)N/C(=C\c2cn(S(=O)(=O)N(C)C)c3ccccc23)C(=O)NCCCN2CCOCC2)cc1	inconclusive [inhibitor, single point]
COc1ccc(C)cc1NC(=O)CN1CCN(S(=O)(=O)c2ccc(C(C)C)cc2)CC1	active: 13.1 µM
O=C(Nc1nncs1)C1(c2ccccc2)CCCC1	inconclusive [inhibitor, partial curve, poor fit]
Cc1nn(-c2ccccc2)c(N2CCCC2)c1/C=N/NC(=S)Nc1ccccc1C(F)(F)F	inconclusive [inhibitor, partial curve, poor fit]
Cc1ccc(SC[C@H](Cc2ccccc2)N2CCN(C)CCC2=O)cc1	active: 11.7 µM
COc1cc(C(=O)NC2CC3CCCC(C2)N3C2CC2)cc(OC)c1OC (stereo not drawn)	inconclusive [inhibitor, full curve]
COc1cc(COc2ccc3c(C)c(Cc4ccccc4)c(=O)oc3c2C)cc(OC)c1OC	inconclusive [inhibitor, full curve]
O=C(CSc1nnc(CNC(=O)c2ccccc2)o1)NCc1ccccc1Cl	inactive
CC#CC(=O)N1CCC(CCC(=O)N(C)Cc2ccccc2)CC1	inconclusive [inhibitor, partial curve, poor fit]
O=C(O)C(Cc1c[nH]c2ccccc12)N1C(=O)C2C3c4ccccc4C(c4ccccc43)C2C1=O (stereo not drawn)	inconclusive [inhibitor, partial curve]
CC[C@@H]1[C@H]2CCCC(=O)N3CC[C@@H](C[C@@H]1Nc1ccccc1)[C@@H]23	inconclusive [inhibitor, full curve]
Cn1c(SCC(=O)N2CCc3ccccc3C2)nnc1-c1ccncc1	inconclusive [inhibitor, partial curve, poor fit]
COCCCNC(=O)C(=O)NCC1CCCN1S(=O)(=O)c1cccs1 (stereo not drawn)	inconclusive [inhibitor, partial curve, poor fit]
FC(F)(F)c1ccc(N2CCOCC2)c(Nc2nc3ccccc3n3cnnc23)c1	inconclusive [inhibitor, partial curve]
Cc1nn(Cc2ccc(C(=O)Nc3ccccc3C(F)(F)F)o2)c(C)c1Br	inconclusive [inhibitor, single point]
CC1CN(C(=O)c2ccc(COc3ccccc3Cl)o2)CC(C)O1 (stereo not drawn)	inactive
CCOc1cccc(CN2CCCC(CCC(=O)NCc3ccccc3F)C2)c1O (stereo not drawn)	inconclusive [inhibitor, single point]
Cc1cc(NC(=O)CSc2ccc(-c3nc4cc(C)c(C)cc4[nH]3)cn2)no1	active: 3.29 µM
CCCC(=O)NC(c1ccc(C(C)C)cc1)c1ccc2cccnc2c1O (stereo not drawn)	active: 1.47 µM
Cc1ccc(NC(=O)c2cccc(Cl)c2)nc1	inactive
O=C(NCC1(N2CCCCC2)CCCCC1)c1cccc(S(=O)(=O)Nc2ccc(F)cc2)c1	active: 8.28 µM
COc1ccc(CN2CCC(N(CCc3ccccc3)Cc3ccccc3)CC2)c(OC)c1	inconclusive [inhibitor, partial curve, poor fit]
CC(C)C(O)P(=O)(OCc1ccccc1)c1ccc(N(C)C)cc1 (stereo not drawn)	inactive

Structure (SMILES)	Potency
COc1cccc(N2CCN(CC(=O)Nc3ccc(S(=O)(=O)N4CCCCCC4)cc3)CC2)c1	active: 11.7 µM
CCN(CC)CCN1C(=O)C(=O)/C(=C(/O)c2c(C)[nH]c(C(=O)OC)c2C)C1c1cccnc1 (stereo not drawn)	inconclusive [inhibitor, partial curve]
OCC[C@H]1C[C@@H](O)[C@H](O)[C@]2(CCCCO2)O1	inactive
S=C(Nc1ccccn1)Nc1ccccc1Cl	inactive
O=C(c1ccc(Cl)cc1Cl)N1CCN(c2ccc(N3CCOCC3)nn2)CC1	inconclusive [inhibitor, partial curve]
c1ccc(Sc2cccc3ccccc23)c(CNC2=NCCN2)c1	active: 1.17 µM
O=C(c1cc2c([nH]c1=O)CCCC2)N1CCc2c([nH]c3ccccc23)C1c1ccccc1F (stereo not drawn)	inconclusive [inhibitor, partial curve, poor fit]
Cc1cc(C)c(S(=O)(=O)Nc2cccc(/C=C/C(=O)O)c2)c(C)c1	inactive
CC1=C(CCN2CCN(C3CCCC3)C(CCO)C2)C(C)(C)CCC1 (stereo not drawn)	inconclusive [inhibitor, partial curve]
C[n+]1c2n(c3ccccc31)N=C(c1ccc(Br)cc1)CS2	inconclusive [inhibitor, full curve]
O=C(Cn1cnc2ccccc2c1=O)c1ccc2c(c1)OCCO2	inactive
COCCN(C(=O)COC(=O)Cc1cccc(OC)c1)c1c(N)n(Cc2ccccc2)c(=O)[nH]c1=O	inconclusive [inhibitor, single point]
COc1ccc(/C=C/c2c([N+](=O)[O-])c(=O)n(C)c(=O)n2C)c(OC)c1	inconclusive [inhibitor, partial curve]
CN(C(=O)C1CCCO1)C1CCS(=O)(=O)C1 (stereo not drawn)	inactive
CC(C)NC(=O)c1cc(-c2ccco2)nn1-c1ccc(Cl)cc1	inconclusive [inhibitor, single point]
COc1ccc(OC)c(NP(=O)(Oc2ccc(Cl)cc2)Oc2ccc(Cl)cc2)c1	inconclusive [inhibitor, partial curve, poor fit]
CCC1CN(C(=O)Nc2cccc(C)c2)c2cc(C)ccc2O1 (stereo not drawn)	inconclusive [inhibitor, single point]
CC(C)CCN(C(=O)CNC(=O)c1cccs1)C(C(=O)NC1CCCCC1)c1cccnc1 (stereo not drawn)	inconclusive [inhibitor, single point]
CC(C)CN(C(=O)COC(=O)Cc1c[nH]c2ccccc12)C1CCS(=O)(=O)C1 (stereo not drawn)	inconclusive [inhibitor, single point]
Cc1nc2ccccc2n1C(C)c1ccccc1 (stereo not drawn)	inconclusive [inhibitor, single point]
COc1ccc(C(C(=O)NC(C)(C)C)N(Cc2cccnc2)C(=O)CCC(=O)Nc2cc(C)on2)cc1 (stereo not drawn)	inconclusive [inhibitor, single point]
Cc1c(CCOC(=O)c2ccccc2)sc[n+]1CC(=O)c1ccc(Br)cc1	inconclusive [inhibitor, partial curve, poor fit]
CCCC1=[N+](CC(=O)c2ccccc2)CCn2c(C)ccc21	inconclusive [inhibitor, full curve, poor fit]

Structure (SMILES)	Potency
CC(C)(C)c1cc(-c2ccccc2)n[nH]1	inactive
CCOC(=O)Cc1nn(Cc2nc(-c3ccc(C)cc3)cs2)c(=O)c2ccccc12	inactive
COc1cccc(CNC(=O)COc2cccc3c2OC(C)(C)C3)c1	inconclusive [inhibitor, single point]
COc1cc(O)c(C(CCN2CCCC2)c2cc(OC)c(OC)c(OC)c2)c(OC)c1 (stereo not drawn)	active: 4.15 µM
C=CCN(c1ccccc1)S(=O)(=O)c1cccc(C(=O)NCC(c2ccccc2OC)N2CCCC2)c1 (stereo not drawn)	inconclusive [inhibitor, partial curve]
Cc1[nH]n(C2=NCCS2)c(=O)c1N=Nc1ccccc1	inactive
O=C(c1ccc([N+](=O)[O-])cc1)n1nc(-c2ccccc2)nc1NCc1ccc(F)cc1	inactive
Cc1cccnc1NC(=O)c1ccc([N+](=O)[O-])o1	inconclusive [inhibitor, single point]
CC(=O)NCCC(=O)Nc1cc(S(=O)(=O)N2CCOCC2)ccc1N1CCOCC1	inactive
CCOC(=O)C1CCN(C(=O)c2ccc3c(c2)NC(=O)/C(=C/c2ccccc2)S3)CC1	inconclusive [inhibitor, single point]
CCCc1nc2c(c(=O)c3ccccc3n2C)c(=O)n1-c1cc(C)cc(C)c1	inconclusive [inhibitor, partial curve, poor fit]
N#Cc1c(NC(=O)CCC(=O)O)sc2c1CCCC2	inactive
CCCn1cnnc1CNC(=O)C1CCC(=O)N(CCc2cccc(F)c2)C1 (stereo not drawn)	inactive
COc1c(N2CCN(C(=S)Nc3ccccc3)C(C)C2)c(F)cc2c(=O)c(C(=O)O)cn(C3CC3)c12 (stereo not drawn)	inconclusive [inhibitor, partial curve, poor fit]
Cc1ccc(C)c(NC(=O)CSc2nnc(Cc3cccn3C)n2-c2ccc(F)cc2)c1	inconclusive [inhibitor, single point]
O=C(Cc1ccc(Cl)cc1)Nc1ncc([N+](=O)[O-])s1	inactive
O=C(c1cccc(-c2nnc(-c3ccccc3)o2)c1)N1CCCCC1	inactive
NC(=O)[C@H]1CC2(CC(c3cccc(NC(=O)CC(c4ccccc4)c4ccccc4)c3)=NO2)CN1C(=O)C(c1ccccc1)c1ccccc1 (stereo partly drawn)	active: 10.4 µM
COC(=O)C1=C(C)NC(C)=C(C(=O)OC)C1c1ccc(-c2cccc([N+](=O)[O-])c2)o1	inconclusive [inhibitor, single point]
CN(C(=O)c1c(Cl)nc2sccn12)C1CCCCC1	inactive
Cc1cc(=O)n2nc(N3CCCC(C(=O)NC4CCC(C)CC4)C3)sc2n1 (stereo not drawn)	inconclusive [inhibitor, single point]
CCCCC1=CC2=C(c3ccco3)C(=O)C(C)(OC(=O)c3ccc(OC)cc3)C(=O)C2=CN1CCc1ccccn1 (stereo not drawn)	inconclusive [inhibitor, single point]
